Experimental findings from PubChem BioAssay AID1508642 (National Center for Advancing Translational Sciences (NCATS), 2021) are described below.

In all, about 43,000 compounds went through this assay and about 200 (0.47%) were called active. About 12% were inconclusive and are not listed. The call rests on the fitted dose curve; in most records, active means well fitted cell-killing curve with a large enough effect; inconclusive means small, poorly fitted or top-dose-only effect, or effect the other way; inactive means flat fitted curve, though single readings scatter. Some of the results follow.
On the % scale 0 is the no-effect control and ±100 the full control effect.

This assay can be described thus: Cell viability qHTS assay in S16 Pmp22-F2sN cells. Further: nearly all actives have a fitted effect of over 65% in size. The conditions noted are these: S16 Pmp22-F2sN Schwann cells viability, CellTiter-Glo, 24 h; series mostly up to 57.5 µM; activity change, negative = cytotoxicity: at the top concentration. Summed up:
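Viability was measured by CellTiter-Glo luminescence (15 min, room temperature). This followed 24 h at 37 °C of compound exposure (23 nL pin transfer) in S16 Pmp22-F2sN Schwann cells, 500-1,000 per well.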
`O=C(Cn1c(-c2cccs2)cc2cc(F)ccc21)N1CCN(c2cccc(Cl)c2)CC1`: the “activity change, negative = cytotoxicity” value is inactive: -0.659%. With `O=C(Nc1cc(-c2nc3ccccc3o2)ccc1Cl)c1ccc(Br)o1`, the “activity change, negative = cytotoxicity” value was inactive: 9.07%.

In the case of `Cc1c(C(=O)NCc2ccccc2)sc2nc[nH]c(=O)c12`, the “activity change, negative = cytotoxicity” value was inactive: -0.36%. Next, `Cc1ccc(CCNc2nc3c(S(=O)(=O)c4ccccc4)nnn3c3ccsc23)cc1`: inactive: 4.46%; `COc1cc(-c2noc(-c3ccc(N(C)C)c([N+](=O)[O-])c3)n2)cc(OC)c1OC`: inactive: -9.55%. In the case of `CCOc1ccc(Nc2sc(C(=O)c3ccc4c(c3)OCO4)c(N)c2S(=O)(=O)c2ccc(C)cc2)cc1`, the “activity change, negative = cytotoxicity” value was inactive: -0.476%. The same measure for `Cn1nc(C(=O)N2CCN(c3ccc(Cl)cc3)CC2)c2c1-c1ccccc1S(=O)(=O)C2`: inactive: -20.9%; for `COc1ccc(-c2cc(C(F)(F)F)nc(NCc3ccc(Cl)cc3)n2)cc1`: inactive: 0.209%; for `COc1ccccc1CNC(=O)CSc1cc(=O)n(C)c2ccccc12`: inactive: -28.6%. The same measure for `CC(=O)Nc1ccc(S(=O)(=O)NC2(C(F)(F)F)NC(=O)N(c3ccccc3F)C2=O)cc1` (stereo unspecified): inactive: 1.8%. The same measure for `CCC1CN(C(=O)Nc2cccc(OC)c2)c2ccccc2O1` (stereo unspecified): inactive: -4.1%; for `COc1ccc2c(c1)c1c(c(=O)n(-c3ccc(F)c(Cl)c3)c(=O)n1CC(N)=O)n2C`: inactive: 2.81%. Turning to `CCOc1ccc(-c2c(C)nn3c(C)c(C(=O)NCCc4ccccc4)cnc23)cc1OCC`, the “activity change, negative = cytotoxicity” value was inactive: 1.13%.

With `COc1cccc2c1cc1c(=O)n(CC(=O)O)nc(C)n12`, the “activity change, negative = cytotoxicity” value is inactive: 6.22%. The same measure for `Cc1ccc(-c2cn3c(n2)sc2cc(C(=O)NC4CCCc5ccccc54)ccc23)cc1` (stereo unspecified): inactive: 2.27%; for `CCOCCCNC(=O)C1CCN(c2cc(C)nc3c(-c4ccc(Cl)cc4)c(C)nn23)CC1`: inactive: 0.173%.

In the case of `CCc1ccc(NCc2cc3cc4c(cc3n(CC(=O)Nc3ccccc3Cl)c2=O)OCO4)cc1`, the “activity change, negative = cytotoxicity” value is inactive: -24.4%. The same measure for `CCOc1ccc(-n2c(=O)c3c4c(sc3n(Cc3cccc(C)c3)c2=O)CCCC4)cc1`: inactive: 7.65%.

Take `Clc1ccc2nc(Nc3ccccc3Cl)nc(-c3ccccc3)c2c1`: the “activity change, negative = cytotoxicity” value was inactive: 2.9%.

Regarding `COc1ccc(NC(=O)Cn2c(=O)n(CC(=O)NCCc3ccccc3)c(=O)c3ccccc32)cc1`, the “activity change, negative = cytotoxicity” value is inactive: -4.73%. The same measure for `COc1ccc(CNC(=O)c2cc3c(-c4ccccc4F)nn(C)c3s2)cc1`: inactive: -13.3%. The same measure for `COc1ccc(OC)c(NC(=O)c2c(NCc3ccc(OC)c(OC)c3)sc3c2CCC3)c1`: inactive: 16.1%.

On to `O=C(Nc1ccc(Br)cc1F)C(NS(=O)(=O)c1cccc2nsnc12)c1ccccc1` (stereo unspecified), for which the “activity change, negative = cytotoxicity” value was inactive: 1.17%. The same measure for `Cc1ccc(NC(=O)c2cc3c(-c4ccccc4)nn(-c4ccccc4)c3s2)cc1`: inactive: 4.9%; for `CCN(C(=O)CSc1nnc(-c2cc3occc3n2C)n1-c1ccccc1C)c1cccc(C)c1`: inactive: 2.48%.

Regarding `CCOc1ccccc1NC(=O)Cn1c(=O)n(-c2ccccc2)c(=O)c2c1c1cc(C)ccc1n2C`, the “activity change, negative = cytotoxicity” value is inactive: 5.17%.
